Some of the results follow.

Our source for the binding signal values is publication PMC7819943, “Rice protein-binding microarrays: a tool to detect cis-acting elements near promoter regions in rice”.

The assay addresses T1, OsWOX13 (Oryza sativa, UniProt Q5QMM3 1-267).
T1 sequence: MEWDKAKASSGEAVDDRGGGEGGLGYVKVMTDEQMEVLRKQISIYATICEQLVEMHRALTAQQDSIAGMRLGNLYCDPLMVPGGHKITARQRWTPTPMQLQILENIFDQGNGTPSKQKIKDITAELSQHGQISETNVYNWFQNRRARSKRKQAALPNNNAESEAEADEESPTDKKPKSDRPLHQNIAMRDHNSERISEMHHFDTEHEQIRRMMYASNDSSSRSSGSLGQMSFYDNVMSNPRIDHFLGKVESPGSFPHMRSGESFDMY
The assay can be described thus: protein-binding microarray (RPBM); PBS, 2% BSA, 51.3 ng/ul salmon testes DNA, 50 uM zinc acetate, 200 nM TF, 25 C, 1 h; high values mean tight binding. The settings on record: protein: recombinant; tags: N-terminal polyhistidine and DsRed monomer fusion (pET32a); label: CyDye5-dUTP incorporated in the synthesized complementary strand; 3' TTTTT single-stranded linker to array surface; dsDNA, one strand shown. The procedure, abridged:
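The binding signal for each feature is its fluorescence intensity in arbitrary units. An Axon 4000B scanner was used to read a custom Agilent array that had been made double-stranded with Cy5-dUTP primer extension, blocked with 2% BSA, incubated at 25 °C for 1 h with 200 nM protein in PBS, 2% BSA, salmon testes DNA and 50 µM zinc acetate, and washed. The protein was an N-terminal polyhistidine–DsRed transcription factor fusion from E. coli BL21-CodonPlus, purified on Ni–NTA.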
With “TTGATTAATTTATTTATAGTTTTGTGAAAGTTTGCGCCGTCGGAGTCACCTAGTGCAG”, the binding signal is 57900 fluorescence intensity (a.u.).
As for “CCACTAATAAAGAAATTAGGGTAAGGAACCAAGATGTACGCGGAGTCACCTAGTGCAG”, the binding signal is 5710 fluorescence intensity (a.u.).
“ATAATGTGTAACTTGATTGCTGAGGTAGTATTAATCTTTGCGGAGTCACCTAGTGCAG”: the binding signal was 24300 fluorescence intensity (a.u.).
For “AATTCATTGTAATTAAATCTTCAAAACAAGACCACACATGCGGAGTCACCTAGTGCAG” the value was 3400 fluorescence intensity (a.u.); for “CACATACTATACTACATTAATTATATTCTGATGAAATCCGCGGAGTCACCTAGTGCAG”, 4130 fluorescence intensity (a.u.).
Then “TTATATTTAGATTGAAGCCAAAATAACCTAAGTTCACTATCGGAGTCACCTAGTGCAG”, with 8620 fluorescence intensity (a.u.); and “TAGTGATAGACGGCATAACCATAGACAACGAGGTGCTCGTCGGAGTCACCTAGTGCAG”, with 14600 fluorescence intensity (a.u.); and “ACCACCACAAATTAAACCGTATTTTATTACCATCACACGCCGGAGTCACCTAGTGCAG”, with 3240 fluorescence intensity (a.u.).
On to “CATAAACAGATGCTAATTCTTGGTGGTCGGGGTGGGTCTCCGGAGTCACCTAGTGCAG”, for which the binding signal was 19500 fluorescence intensity (a.u.).
As to “CAATCATTCAATCATCGCCGCCTTATCTTTCCCAATTCGACGGAGTCACCTAGTGCAG”, the binding signal was 13400 fluorescence intensity (a.u.).
Then “TCCAATTTGTATGTTATTAATCAGAGAAGAACGAGACGGACGGAGTCACCTAGTGCAG”, with 3800 fluorescence intensity (a.u.).
Then “GGAAGTGATTGCTGTGCTGCACAGTCTAGCACCGCAGCATCGGAGTCACCTAGTGCAG”, with 20200 fluorescence intensity (a.u.); and “ACACCAAATGTCTAAATTTAAATTTAAAGTGAGAGTTGGTCGGAGTCACCTAGTGCAG”, with 8050 fluorescence intensity (a.u.).
In the case of “ATGCGGCCAATCAGATTGAGCGGCGTGCATCATGAGTGTCCGGAGTCACCTAGTGCAG”, the binding signal was 6880 fluorescence intensity (a.u.).
Then “GAAAGACAGATTGCATGTTTGCACTGTGTTTGTTCCCTGACGGAGTCACCTAGTGCAG”, with 5950 fluorescence intensity (a.u.).
For “ACTAGCTAAATTATACCATGTTAACTTATACTATATTAGTCGGAGTCACCTAGTGCAG” the value was 9700 fluorescence intensity (a.u.).
Then “GGAGATTGGAGATTGTAGAAGAAGAAGCAGCTACAAACCTCGGAGTCACCTAGTGCAG”, with 20000 fluorescence intensity (a.u.); and “CATTTGTCAGTCAAAATTATGCCACGTCGTGTCCGTGTGACGGAGTCACCTAGTGCAG”, with 3780 fluorescence intensity (a.u.); and “ATCTTGTTAATTTTGGCCTCAAATAGGTCTAGAATTCATCCGGAGTCACCTAGTGCAG”, with 4030 fluorescence intensity (a.u.).
With “AGCTTAATTTGCTAGCCATTATAGCCTCTCATCGATATATCGGAGTCACCTAGTGCAG”, the binding signal was 25200 fluorescence intensity (a.u.).
“TGCTGCCAATTATTTTCAAAACAGGAGAGATTGTTGCCTCCGGAGTCACCTAGTGCAG”: the binding signal was 5630 fluorescence intensity (a.u.).
Regarding “GCCATATATAGATTGCTCTTTCATTTCCCGATCGGTTGATCGGAGTCACCTAGTGCAG”, the binding signal is 6660 fluorescence intensity (a.u.).
Then “CATTGATAGACAGATAGGTGAGGTTGGTGCACTGTCCCCACGGAGTCACCTAGTGCAG”, with 51000 fluorescence intensity (a.u.).
Then “TGTGATTGGGCCAAAGCCCAATACCCCAACACACGACGACCGGAGTCACCTAGTGCAG”, with 23200 fluorescence intensity (a.u.).
“ATTAAATCAGATTACTCTAAACTGGATTATAATAAGCTGGCGGAGTCACCTAGTGCAG”: the binding signal is 10300 fluorescence intensity (a.u.).
As for “ATCTTAATTTAATTTATACTGGTTTCCAAGTTGTAATTAACGGAGTCACCTAGTGCAG”, the binding signal is 21400 fluorescence intensity (a.u.).
For “TATAATTGTGCCCTACCATATCGGCTTACTCGTCAGGCAACGGAGTCACCTAGTGCAG”, the binding signal was 12400 fluorescence intensity (a.u.).
Then “TTTTGGTGTGATTATGTATATATATATCTGGGTGATTGGTCGGAGTCACCTAGTGCAG”, with 9400 fluorescence intensity (a.u.); and “TCTGAGCAATTAGTAAGTGAATGTCGCTACTGCATTGGCGCGGAGTCACCTAGTGCAG”, with 4330 fluorescence intensity (a.u.); and “TGTGGGTCTTATCTTAATATTAATTACTATCTATATACATCGGAGTCACCTAGTGCAG”, with 3310 fluorescence intensity (a.u.).
For “ATTGGATTGGATTATTAATGAGACGGTGAGATTTCAAGTGCGGAGTCACCTAGTGCAG” the value was 19700 fluorescence intensity (a.u.); for “CATTATTAATTTTACGACTGACGCGAAGTGCTAACGAGCTCGGAGTCACCTAGTGCAG”, 3200 fluorescence intensity (a.u.).
Consider “TTAAATTTTATGTTGCTCCATCTTCCGAGTCCTTGCTACTCGGAGTCACCTAGTGCAG”, for which the binding signal was 3360 fluorescence intensity (a.u.).
For “TAGTCTTGATTGATTGGCAGATGACAGCATAATAGCCGTACGGAGTCACCTAGTGCAG” the value was 65200 fluorescence intensity (a.u.).
In the case of “ATGATCGGGGCATCAATCCATCAACATTTATTTATAGGTACGGAGTCACCTAGTGCAG”, the binding signal is 3720 fluorescence intensity (a.u.).
Regarding “TTTGACTGCGTTCGTTTGGAGAACAAAGGGAGTTTGTTTGCGGAGTCACCTAGTGCAG”, the binding signal is 8590 fluorescence intensity (a.u.).
Then “TTAATTAGGCTTAATAAATTCGTCTCGCAGTTTCCTGGCGCGGAGTCACCTAGTGCAG”, with 11300 fluorescence intensity (a.u.); and “GCCCTATTAATAACACATGTAATTAAGCCAACACTAATCCCGGAGTCACCTAGTGCAG”, with 7980 fluorescence intensity (a.u.); and “GGCTCAAACAGTTAAACTGATAAATACGGTCAATTCACGACGGAGTCACCTAGTGCAG”, with 5110 fluorescence intensity (a.u.).
Then “ATAGTTACAATATAATTGTATTTTAATTATATATAGTTTCCGGAGTCACCTAGTGCAG”, with 10200 fluorescence intensity (a.u.).
On to “TTTTGACTGACTTAAGTACACTAGTATAAAGTATGCAAAACGGAGTCACCTAGTGCAG”, for which the binding signal is 3300 fluorescence intensity (a.u.).
For “ATAATCAATCACACACACATCCCGACCGGGTCCGAATAGACGGAGTCACCTAGTGCAG” the value was 23200 fluorescence intensity (a.u.).
